From patent US20220348632A1 (Novartis, published 2022)

How the values were obtained:
[1] = target: T1, human ULBP1 expressed on cells (human, UniProt Q9BZM6 26-216); experiment: cell-based or functional assay
T1 sequence (looked up): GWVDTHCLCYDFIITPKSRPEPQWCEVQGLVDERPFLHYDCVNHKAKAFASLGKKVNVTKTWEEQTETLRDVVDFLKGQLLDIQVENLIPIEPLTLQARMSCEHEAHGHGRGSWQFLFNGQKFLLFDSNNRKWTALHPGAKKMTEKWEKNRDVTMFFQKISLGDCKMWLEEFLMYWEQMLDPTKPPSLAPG

[2] = target: T2, human ULBP2 expressed on cells (human, UniProt Q9BZM5 26-217); experiment: cell-based or functional assay
T2 sequence (looked up): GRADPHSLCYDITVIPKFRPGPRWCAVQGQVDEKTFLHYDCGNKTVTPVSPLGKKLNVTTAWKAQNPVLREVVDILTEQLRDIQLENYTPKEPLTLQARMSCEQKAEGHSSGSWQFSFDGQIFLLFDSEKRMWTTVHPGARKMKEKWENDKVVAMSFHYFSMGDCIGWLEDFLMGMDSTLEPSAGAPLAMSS

[3] = target: T3, cynomolgus MICB*05 over-expressed on CT26.WT cells (cynomolgus); experiment: cell-based or functional assay
[4] = target: T4, human MICA*008 over-expressed on CT26.WT cells (human); experiment: cell-based or functional assay
T4 sequence (Q29983 whole entry, looked up): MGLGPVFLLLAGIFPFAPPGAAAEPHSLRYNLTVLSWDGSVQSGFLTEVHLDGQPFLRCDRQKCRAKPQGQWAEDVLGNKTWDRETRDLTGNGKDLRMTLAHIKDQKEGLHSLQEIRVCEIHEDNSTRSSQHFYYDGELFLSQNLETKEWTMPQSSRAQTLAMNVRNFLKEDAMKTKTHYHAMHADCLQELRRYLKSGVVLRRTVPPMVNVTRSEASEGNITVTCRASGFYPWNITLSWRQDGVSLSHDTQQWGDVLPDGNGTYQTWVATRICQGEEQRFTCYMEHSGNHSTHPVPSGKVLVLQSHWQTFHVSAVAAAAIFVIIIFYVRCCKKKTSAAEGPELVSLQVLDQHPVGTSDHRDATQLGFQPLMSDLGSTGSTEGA

[5] = target: human MICB*001 over-expressed on CT26.WT cells (human); experiment: cell-based or functional assay
[6] = target: T1, human ULBP1 expressed on cells; experiment: cell-based or functional assay; remark: listed apart in the source
[7] = target: T2, human ULBP2 expressed on cells; experiment: cell-based or functional assay; remark: listed apart in the source
[8] = target: cynomolgus MICA*08 over-expressed on CT26.WT cells (cynomolgus); experiment: cell-based or functional assay
[9] = target: T3, cynomolgus MICB*05 over-expressed on …; experiment: cell-based or functional assay; remark: listed apart in the source
[10] = target: T5, recombinant human MICA*001 ligand (human, UniProt Q29983 24-307, Biotinylated for capture on the SA chip in the bivalent setup, according to our card. The site is not given.); experiment: SPR (Biacore T200), bivalent setup: biotinylated ligand captured on SA chip, NKG2D-Fc as analyte
T5 construct: also called hMICA*001
T5 sequence: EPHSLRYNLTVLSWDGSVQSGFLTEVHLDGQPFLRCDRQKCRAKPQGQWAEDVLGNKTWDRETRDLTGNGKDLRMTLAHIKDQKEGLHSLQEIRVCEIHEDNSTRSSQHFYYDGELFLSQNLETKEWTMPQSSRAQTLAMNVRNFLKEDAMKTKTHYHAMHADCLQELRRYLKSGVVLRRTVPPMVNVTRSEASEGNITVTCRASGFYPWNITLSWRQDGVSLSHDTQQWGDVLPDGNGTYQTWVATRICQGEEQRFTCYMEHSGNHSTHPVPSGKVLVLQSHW
Experimental: (§1) A direct binding assay was performed to characterize the binding of the ADCC enhanced and wild-type NKG2D-Fc variants against recombinant human MICA*001 and MICB*001 ligands. The NKG2D-Fc variants were first used as ligand to characterize the binding of each NKG2D dimer to MICA and MICB (monovalent binding setup) and secondly as analyte in order to determine the effect on the binding when having two homodimers (bivalent binding setup).
(§2) For the bivalent binding setup, kinetic binding affinity constants (KD) were measured on streptavidin captured recombinant human NKG2D ligands using NKG2D-Fc variants as analyte. Measurements were conducted on a BIAcore® T200 (GE Healthcare, Glattbrugg, Switzerland) at room temperature. All proteins were diluted in 0.01 M HEPES pH 7.4, 0.15 M NaCl, 3 mM EDTA, 0.005% v/v Surfactant P20. The biotinylated NKG2D ligands were covalently captured on the flow cells of a SA research grade sensor chip (GE Healthcare, ref 29104992) using standard procedure according to the manufacturer's recommendation (GE Healthcare). To serve as reference, one flow cell was blank immobilized. Binding data were acquired by subsequent injection of analyte dilutions series on the reference and measuring flow cell. Zero concentration samples (running buffer only) were included to allow double referencing during data evaluation. For data evaluation, doubled referenced sensograms were used and dissociation constants (KD) analyzed.

[11] = target: T6, recombinant human MICB*001 ligand (human, UniProt Q29980 23-309, Biotinylated for capture on the SA chip in the bivalent setup, according to our card. The site is not given.); experiment: as above
T6 construct: also called hMICB*001
T6 sequence: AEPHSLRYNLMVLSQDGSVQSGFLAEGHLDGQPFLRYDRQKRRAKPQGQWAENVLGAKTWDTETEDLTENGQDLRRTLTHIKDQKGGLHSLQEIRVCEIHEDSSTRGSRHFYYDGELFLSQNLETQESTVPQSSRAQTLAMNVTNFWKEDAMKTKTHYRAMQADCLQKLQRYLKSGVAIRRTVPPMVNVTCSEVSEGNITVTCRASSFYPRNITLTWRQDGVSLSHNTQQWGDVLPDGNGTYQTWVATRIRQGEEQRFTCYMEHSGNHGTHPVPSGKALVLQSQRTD
Experimental: as §1, §2

B1: HH8, hNKG2D(aa84-216)-RS(G3S)2-hNKG2D(aa84-216)-hFc1 (Fc fusion)
chain: NQEVQIPLTESYCGPCPKNWICYKNNCYQFFDESKNWYESQASCMSQNASLLKVYSKEDQDLLKLVKSYHWMGLVHIPTNGSWQWEDGSILSPNLLTIIEMQKGDCALYASSFKGYIENCSTPNTYICMQRTVRSGGGSGGGSNQEVQIPLTESYCGPCPKNWICYKNNCYQFFDESKNWYESQASCMSQNASLLKVYSKEDQDLLKLVKSYHWMGLVHIPTNGSWQWEDGSILSPNLLTIIEMQKGDCALYASSFKGYIENCSTPNTYICMQRTV[human IgG1 Fc left out here]
notes: Homodimer of two monomers joined through the Fc; also called NKG2D-Fc; HH8 with IgG1-Fc wt
EC50 (ng/mL), hRGA killing (Human CD16 RGA) [1]: 5 ng/mL | EC50 (ng/mL), hRGA killing (Human CD16 RGA) [2]: 10 ng/mL | EC50 (ng/mL), hRGA killing (Human CD16 RGA) [3]: 194 ng/mL | ADCC EC50 (pM), FcγRIIIa reporter gene assay [4]: 30 pM | ADCC EC50 (pM), FcγRIIIa reporter gene assay [5]: 30 pM | ADCC EC50 (pM), FcγRIIIa reporter gene assay [6]: 43 pM | ADCC EC50 (pM), FcγRIIIa reporter gene assay [7]: 93 pM | ADCC EC50 (pM), FcγRIIIa reporter gene assay [8]: 18 pM | ADCC EC50 (pM), FcγRIIIa reporter gene assay [9]: 1680 pM | koff [10]: 0.000814 s⁻¹ | kon [10]: 4.83e+06 M⁻¹ s⁻¹ | Kd [11]: 0.89 nM | koff [11]: 0.00281 s⁻¹ | kon [11]: 3.89e+06 M⁻¹ s⁻¹
